In all, about 390,000 compounds went through this assay and about 17,000 (4.4%) were called active. Inconclusive results, whose numbers are uncertain, are shown with a selection of clear calls. The call rests on the fitted dose curve; in most records, active means well fitted inhibition curve with a large enough effect; inconclusive means small, poorly fitted or top-dose-only effect; inactive means no such curve, though single readings can be large or run the other way. Potencies of inconclusive entries are doubtful fits and often do not repeat.
What follows are molecules tested against Lysine-specific demethylase 4A (Homo sapiens) (UniProt O75164) (assay: qHTS Assay for Inhibitors of JMJD2A-Tudor Domain). Conditions: AlphaScreen JMJD2A-Tudor / H3K4me3 peptide binding; series mostly up to 114 µM.
Sequence of UniProt O75164 (O75164 whole entry, looked up, the tested form may be a part): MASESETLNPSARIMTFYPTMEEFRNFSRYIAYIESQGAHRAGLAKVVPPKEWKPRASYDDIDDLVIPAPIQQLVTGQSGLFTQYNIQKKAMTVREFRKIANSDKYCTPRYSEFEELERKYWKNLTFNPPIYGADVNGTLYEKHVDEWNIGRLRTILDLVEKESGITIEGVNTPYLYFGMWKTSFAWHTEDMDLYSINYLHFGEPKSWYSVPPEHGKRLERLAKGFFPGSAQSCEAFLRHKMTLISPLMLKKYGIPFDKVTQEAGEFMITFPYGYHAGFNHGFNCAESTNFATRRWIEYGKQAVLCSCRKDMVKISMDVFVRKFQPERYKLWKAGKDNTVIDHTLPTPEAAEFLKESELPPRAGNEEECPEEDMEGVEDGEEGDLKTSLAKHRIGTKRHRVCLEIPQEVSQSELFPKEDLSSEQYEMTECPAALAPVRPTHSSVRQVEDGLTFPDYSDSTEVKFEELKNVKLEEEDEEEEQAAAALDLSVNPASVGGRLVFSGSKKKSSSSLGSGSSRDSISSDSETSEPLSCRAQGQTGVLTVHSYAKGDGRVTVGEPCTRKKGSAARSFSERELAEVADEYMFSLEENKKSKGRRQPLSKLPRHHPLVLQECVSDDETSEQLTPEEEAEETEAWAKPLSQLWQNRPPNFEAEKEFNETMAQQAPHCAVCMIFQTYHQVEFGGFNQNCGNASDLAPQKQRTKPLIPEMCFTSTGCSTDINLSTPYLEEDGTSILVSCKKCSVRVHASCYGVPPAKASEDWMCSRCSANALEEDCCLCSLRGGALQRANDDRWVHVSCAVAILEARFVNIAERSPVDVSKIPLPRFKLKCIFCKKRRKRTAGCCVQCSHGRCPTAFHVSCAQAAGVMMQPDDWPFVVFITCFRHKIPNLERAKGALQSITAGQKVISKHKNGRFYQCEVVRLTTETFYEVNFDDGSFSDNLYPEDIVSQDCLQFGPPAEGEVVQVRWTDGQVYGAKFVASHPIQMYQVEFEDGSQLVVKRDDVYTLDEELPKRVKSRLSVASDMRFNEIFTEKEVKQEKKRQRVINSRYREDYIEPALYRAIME
In the case of `CC(=O)c1c[nH]c(C(=O)Nc2ccc(N3CCCCCC3)cc2)c1`, the Potency is reported as active: 35.5 µM.
With `COc1ccc2nc(N=NC3=C(O)CC(C)(C)CC3=O)sc2c1` the Potency was inconclusive: 8.91 µM [inhibitor, full curve, poor fit].
In the case of `Cc1ccccc1C(=O)/C(C#N)=N/Nc1c(C)n(C)n(-c2ccccc2)c1=O`, the Potency is reported as active: 50.1 µM.
In the case of `CCOC(=O)c1c(NC(=O)c2cc(C)on2)c2cc([N+](=O)[O-])ccc2n1C`, the Potency is reported as “inactive”.
`O=C(COc1ccc(-c2nnco2)cc1)N1CCN(S(=O)(=O)c2ccc3ccccc3c2)CC1` was tested, and the Potency was “inactive”.
In the case of `O=C(Nc1nnc(S(=O)(=O)N2CCCCCC2)s1)c1cccc(Br)c1`, the Potency is reported as inconclusive: 11.2 µM [inhibitor, full curve].
For `COc1ccc2c(c1)C(c1cccs1)=NNC(c1ccncc1)=N2`, the Potency was inconclusive: 35.5 µM [inhibitor, partial curve].
For `CN(Cc1cccs1)C(=O)CSc1nc(N)cc(N)n1`, the Potency was active: 79.4 µM.
`O=C(CC1CC2CCC1C2)NC1CCCCCCC1` (centres undefined) was tested, and the Potency was “inactive”.
With `O=C(NCc1ccc(F)cc1)C(Cc1ccccc1)NS(=O)(=O)c1cccs1` (centres undefined) the Potency was “inactive”.
For `Cc1ccc2ncccc2c1NS(=O)(=O)c1ccccc1`, the Potency was inconclusive: 100 µM [inhibitor, single point].
In the case of `NC(=O)c1cnn2c(-c3ccc(Cl)cc3Cl)ccnc12`, the Potency is reported as “inactive”.
For `N=C1/C(=C/c2ccc(Br)o2)C(=O)N=C2SC(CC(=O)N3CCCC3)=NN12`, the Potency was inconclusive: 50.1 µM [inhibitor, partial curve].
In the case of `CCc1nn(CCCC(=O)N2CCN(c3ccc(OC)cc3)CC2)c(=O)c2cc3occc3n12`, the Potency is reported as inconclusive: 56.2 µM [inhibitor, partial curve].
With `Cc1noc(C)c1S(=O)(=O)Nc1ccc2c(c1)CC(=O)N([C@H](C)CO)C[C@H](C)[C@@H](CN(C)CC1CC1)O2` the Potency was “inactive”.
`c1ccc(CCN(Cc2ccccc2)C2CCN(C3CCCC3)CC2)cc1` was tested, and the Potency was active: 2.24 µM.
In the case of `CCC(C)Nc1nc(-c2ccc3c(c2)NC(=O)CO3)cs1` (centres undefined), the Potency is reported as inconclusive: 79.4 µM [inhibitor, partial curve].
In the case of `Fc1ccc(CNCC2CCCO2)cc1` (centres undefined), the Potency is reported as “inactive”.
`O=C(NCc1ccco1)c1cccc(Br)c1` was tested, and the Potency was “inactive”.
`S=C(c1ccc(-c2cc(Cl)ccc2Cl)o1)N1CCOCC1` was tested, and the Potency was inconclusive: 56.2 µM [inhibitor, partial curve].
In the case of `CC1CCN(C(=O)Cn2nnnc2CN2CCOCC2)CC1`, the Potency is reported as inconclusive: 89.1 µM [inhibitor, partial curve].
With `O=C(N/N=C/c1coc2ccccc2c1=O)c1cc(Br)c(O)c(Br)c1` the Potency was “inactive”.
`O=C(NCc1ccc(Cl)cc1)c1ccc(CNc2c(N3CCCC3)c(=O)c2=O)cc1` was tested, and the Potency was “inactive”.
With `Cc1ccc(-c2c(C)n3c4c(=O)n(C)c(=O)n(C)c4nc3n2-c2cccc(O)c2)cc1` the Potency was “inactive”.
In the case of `CCOc1ccc(C(=O)N/N=C/c2cccc3cccnc23)cc1`, the Potency is reported as active: 79.4 µM.
`C[C@H](NC(=O)C1(c2ccccc2)CCN(C(=O)[C@H]2CSCN2C(=O)OC(C)(C)C)CC1)C(=O)O` was tested, and the Potency was inconclusive: 100 µM [inhibitor, partial curve, poor fit].
`Cc1cnc(C(=O)Nc2ccccc2-n2cccc2)cn1` was tested, and the Potency was inconclusive: 70.8 µM [inhibitor, single point].
For `Cc1ccc(OCc2cc(C(=O)N3CC4C[C@@H]5CC3C[C@H](C4)C5)no2)cc1C`, the Potency was “inactive”.
In the case of `Cc1c(-n2c(SC(C)C(=O)NC(N)=O)nc3ccccc3c2=O)c(=O)n(-c2ccccc2)n1C` (centres undefined), the Potency is reported as inconclusive: 22.4 µM [inhibitor, full curve].
`Cc1cc(C)n(CC(O)CN2c3ccccc3Sc3ccccc32)n1` (centres undefined) was tested, and the Potency was active: 31.6 µM.
In the case of `COc1ccc(C2(c3ccc(OC(C)=O)cc3OC(C)=O)CC(c3ccccc3)NC(=S)N2)cc1` (centres undefined), the Potency is reported as inconclusive: 89.1 µM [inhibitor, partial curve].
`CC1=NOC(=O)/C1=C\c1ccc(-c2ccccc2Br)o1` was tested, and the Potency was active: 20 µM.
In the case of `Cc1ccc(N2CCN(C3=NC(=O)/C(=C\c4cccs4)S3)CC2)cc1`, the Potency is reported as inconclusive: 39.8 µM [inhibitor, partial curve].
In the case of `O=C(CSc1n[nH]c(-c2ccncc2)n1)Nc1ccccn1`, the Potency is reported as active: 56.2 µM.
With `COc1cc([N+](=O)[O-])cc(/C=N/NC(=O)CSc2nnc(-c3ccccc3)n2C)c1O` the Potency was inconclusive: 89.1 µM [inhibitor, single point].
`COc1ccc(NC(=S)N(CCC(C)C)C2CCN(C(C)C)CC2)cc1Cl` was tested, and the Potency was “inactive”.
With `CCOc1ccc(OCCC(=O)N2CCN(S(=O)(=O)c3cccc(F)c3)CC2)cc1` the Potency was “inactive”.
In the case of `CCN1C(=O)/C(=C/c2ccc(C)s2)SC1=Nc1ccc(OC)cc1`, the Potency is reported as inconclusive: 39.8 µM [inhibitor, partial curve].
With `COC(=O)c1ccc(S(=O)(=O)NCc2ccccn2)n1C` the Potency was inconclusive: 25.1 µM [inhibitor, single point].
With `Brc1cccc(OCCN2CCOCC2)c1` the Potency was active: 5.62 µM.
For `CC(=O)Nc1cccc(Oc2ncnc3scc(-c4ccc(C)cc4)c23)c1`, the Potency was inconclusive: 79.4 µM [inhibitor, single point].
With `Cc1ccccc1N/C(SCc1ccc(Cl)cc1)=C(/C#N)C(=O)NCc1ccco1` the Potency was inconclusive: 35.5 µM [inhibitor, full curve, poor fit].
With `COc1ccc(C(=O)NC(=S)Nc2nc(C)c(C(=O)N(C)C)s2)cc1` the Potency was “inactive”.
`CC(=O)N1CC(C(=O)Nc2ccc3c(c2)OCO3)Oc2ccccc21` (centres undefined) was tested, and the Potency was inconclusive: 56.2 µM [inhibitor, partial curve].
In the case of `COc1cc(C(=S)N2CCOCC2)ccc1OC(=O)c1ccccc1[N+](=O)[O-]`, the Potency is reported as inconclusive: 100 µM [inhibitor, partial curve].
With `COc1ccc(CCNC(=O)CN(c2cc(C(F)(F)F)ccc2Cl)S(C)(=O)=O)cc1` the Potency was “inactive”.
`COC(=O)C1CCN(C(=O)Cc2ccc(C)cc2)CC1` was tested, and the Potency was “inactive”.
For `O=C(c1cc2c(s1)CCC2)N1C(=O)c2ccccc2S1(=O)=O`, the Potency was inconclusive: 89.1 µM [inhibitor, single point].
With `COc1ccc(-n2c(Cc3cccn3C)nnc2SCC(=O)NC2CCCC2)cc1` the Potency was inconclusive: 56.2 µM [inhibitor, partial curve].
In the case of `COc1ccc([C@H]2/C=C\CN(C(=O)C3CCCC3)[C@@H](C)C(=O)N2Cc2ccc(F)cc2)cc1`, the Potency is reported as “inactive”.
In the case of `COc1ccccc1-c1nnc(SCC(=O)NC2CCCCC2)o1`, the Potency is reported as inconclusive: 14.1 µM [inhibitor, full curve].
In the case of `CC(=O)c1ccc(NC(=O)C2CCCN(S(=O)(=O)c3ccc4c(c3)CCCN4C(C)=O)C2)cc1` (centres undefined), the Potency is reported as “inactive”.
With `Cc1ccc(-c2ccc(=O)n(CC(=O)N3CCN(c4cccc(C)c4)C(C)C3)n2)cc1` (centres undefined) the Potency was inconclusive: 56.2 µM [inhibitor, partial curve].
`CCOC(=O)C1=C(CNCCc2ccc(Cl)cc2)NC(=O)NC1c1cccc([N+](=O)[O-])c1` (centres undefined) was tested, and the Potency was inconclusive: 14.1 µM [inhibitor, single point].
With `Cc1c(-c2ccccc2)c(-c2ccc(OCCN(C)C)cc2)n2ccccc12` the Potency was inconclusive: 56.2 µM [inhibitor, partial curve].
In the case of `O=C(CSc1ncccn1)N/N=C/c1ccccc1[N+](=O)[O-]`, the Potency is reported as “inactive”.
With `COC(C(=O)N/N=C(\C)CC(=O)Nc1ccc(Cl)cc1C)c1ccccc1` (centres undefined) the Potency was “inactive”.
In the case of `Cn1ncc2ccc(-c3ccc4ncnc(NCc5cccs5)c4c3)cc21`, the Potency is reported as inconclusive: 63.1 µM [inhibitor, partial curve, poor fit].
In the case of `CCN(CC)c1ccc(/C=N/N2CCN(Cc3ccccc3Cl)CC2)c(O)c1`, the Potency is reported as active: 31.6 µM.
With `O=[N+]([O-])c1ccccc1S(=O)(=O)N1CCCc2ccccc21` the Potency was inconclusive: 56.2 µM [inhibitor, partial curve].
With `O=C(NNc1ccccc1F)c1ccccc1` the Potency was “inactive”.
`CCC1CN(C(=O)N2CCC(C(=O)Nc3cc(C)ccc3C)CC2)c2ccccc2O1` (centres undefined) was tested, and the Potency was inconclusive: 28.2 µM [inhibitor, partial curve].
In the case of `COc1cccc(C(=O)NNC2=C(C(=O)C(F)(F)F)CCC2)c1`, the Potency is reported as “inactive”.
With `Nc1ccccc1C(=O)C[C@H](N)C(=O)O` the Potency was active: 17.8 µM.
`O=[N+]([O-])c1ccc(C=NNc2ccc(S(=O)(=O)O)cc2)cc1` was tested, and the Potency was active: 79.4 µM.
In the case of `O=S(=O)(N/N=C\C=C\c1ccccc1)c1ccc(Br)cc1`, the Potency is reported as “inactive”.
For `COc1ccc(OCCSc2nc3ccccc3n2CC(=O)O)cc1`, the Potency was inconclusive: 89.1 µM [inhibitor, single point].
In the case of `O=C1CN(Cc2ccccc2)S(=O)(=O)c2ccccc21`, the Potency is reported as active: 79.4 µM.
In the case of `CCCOc1cccc(-c2cc(-c3n[nH]c(=S)n3CC)c3ccccc3n2)c1`, the Potency is reported as inconclusive: 39.8 µM [inhibitor, full curve, poor fit].
In the case of `COc1ccc(CNC(=O)COC(=O)C2=Cc3ccccc3OC2)cc1`, the Potency is reported as inconclusive: 28.2 µM [inhibitor, full curve, poor fit].
`O=[N+]([O-])c1ccc(OCC(O)CN2CCN(c3ccccc3F)CC2)cc1` (centres undefined) was tested, and the Potency was inconclusive: 6.31 µM [inhibitor, single point].
With `Cc1cc(C)cc(Nc2sc(C(=O)c3ccccc3)c(N)c2S(=O)(=O)c2ccccc2)c1` the Potency was inconclusive: 44.7 µM [inhibitor, partial curve].
For `O=C(Cn1cncn1)N/N=C/c1cccnc1`, the Potency was “inactive”.
With `CCOC(=O)C(C(=O)OCC)C(C(=O)OCC)N1CCOCC1` (centres undefined) the Potency was inconclusive: 89.1 µM [inhibitor, single point].

Reference: PubChem BioAssay AID504339 (National Center for Advancing Translational Sciences (NCATS), 2011)
Further: nearly all actives have a fitted effect of over 50% in size.
Potency means the concentration at half of the fitted maximal effect; tags describe the fitted curve by direction and shape.
